Results from patent publication US20100314318A1, “HALOGENATED AMIDE BIOCIDAL COMPOUNDS AND METHODS FOR TREATING WATER SYSTEMS AT NEAR NEUTRAL TO HIGH PH” (priority 2009, published 2010).

Tested on: Pseudomonas aeruginosa, Klebsiella pneumoniae, Bacillus subtilis, and Staphylococcus aureus
Experiment: Preservation of acrylic polymer emulsion (pH 8.2), plate counts
Conditions: for change in bacterial counts (FIG. 2): 0 to 50 ppm
Source text: Samples of a generic acrylic polymer emulsion (49.9% [w/v] solids, pH 8.2) are inoculated with approximately equal numbers (ca. 1×10^6 per ml) of cells of Pseudomonas aeruginosa, Klebsiella pneumoniae, Bacillus subtilis, and Staphylococcus aureus. The cell inocula are evenly dispersed in the emulsion samples by vigorous agitation. Samples are then sampled to measure the initial inoculum size. The acrylic polymer emulsions are then amended with selected concentrations of DBMAL (from 2.5 to 500 ppm [or mg/l]). The biocide-treated emulsions are incubated at room temperature (ca. 23° C.) on a rocker platform to provide gentle agitation. Samples for enumerating surviving bacteria are collected after 2, 24, and 48 hr of incubation, serially diluted in phosphate-buffered saline, and plated onto Tryptic Soy Agar (TSA) plates.
After a 48-hr contact time, samples are collected for plate counts.

For `NC(=O)C(Br)(Br)C(N)=O` [DBMAL, 2,2-Dibromomalonamide], the “change in bacterial counts (FIG. 2)” value (48-hr contact time) was “reductions in bacterial counts”, the “bacteria counts (FIG. 1)” value (2-hr contact time, all but 500 ppm DBMAL) was “relatively unchanged” and the “plate counts (FIG. 1)” value (24-hr contact time, 2.5 to 500 ppm) was “clear dose-response relationship”. For the same compound, the “inhibition of test organisms (FIG. 1)” value (48-hr contact time) was “continued to inhibit the test organisms during the entire study” and the “efficacy compared with DBNPA (FIG. 2)” value (all concentrations tested (0 to 50 ppm), 48-hr contact time) was “more efficacious than DBNPA”.
`N#CC(Br)(Br)C(N)=O` [DBNPA, 2,2-Dibromo-3-nitrilopropionamide] was tested, and the “change in bacterial counts (FIG. 2)” value (48-hr contact time) was “reductions in bacterial counts”.
